Results reported in PubChem BioAssay AID485294 (National Center for Advancing Translational Sciences (NCATS), 2010).
The whole screen tested about 370,000 compounds, of which about 150 (0.041%) were called active. The inconclusive results got no clear call from the source; some entries with a clear call stand among them for comparison. Calls come from the whole dose curve; as a rule, active = well fitted inhibition curve with a large enough effect; inconclusive = small, poorly fitted or top-dose-only effect; inactive = flat fitted curve, though single readings scatter. No potency is given beside an inconclusive call; the fits are too rough.

target: Beta-lactamase (Escherichia coli (strain K12)) (UniProt P00811); experiment: qHTS Inhibitors of AmpC Beta-Lactamase (assay with detergent); settings: AmpC hydrolysis of nitrocefin, absorbance 480 nm, 0.01% Triton; activity change, negative = inhibition: at 114 µM (top of the series); note: nearly all actives have a fitted effect of over 25% in size;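 for activity change, negative = inhibition: 0% = no-compound wells and -100% = no-enzyme wells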
Chain of UniProt P00811 (P00811 whole entry, looked up): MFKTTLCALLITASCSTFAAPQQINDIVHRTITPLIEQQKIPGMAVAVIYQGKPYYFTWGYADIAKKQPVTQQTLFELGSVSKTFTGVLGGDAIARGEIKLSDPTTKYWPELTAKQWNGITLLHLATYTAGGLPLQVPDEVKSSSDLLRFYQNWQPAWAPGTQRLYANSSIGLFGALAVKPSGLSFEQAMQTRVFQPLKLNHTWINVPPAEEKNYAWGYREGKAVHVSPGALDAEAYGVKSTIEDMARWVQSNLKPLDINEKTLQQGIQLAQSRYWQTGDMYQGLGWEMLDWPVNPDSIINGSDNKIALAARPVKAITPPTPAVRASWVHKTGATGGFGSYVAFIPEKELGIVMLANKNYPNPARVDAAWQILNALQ
Summary of the method: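 20 mM phosphate pH 7.0 + 0.01% (detergent screen) or 0.0001% Triton X-100; 5.3 nM AmpC reagent; cpd preinc 15 min RT; nitrocefin (800 uM stock) to start; A480 q20 s × 4 min; Activity was normalised to no-enzyme and no-compound control wells.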
Potency is the fitted concentration of half-maximal effect; tags give direction and shape of the fitted curve.

| Structure (SMILES) | Potency | activity change, negative = inhibition |
| --- | --- | --- |
| O=C(c1ccc(F)cc1)N1CCC(N2CCOCC2)CC1 | inconclusive [inhibitor, full curve, poor fit] |  |
| CCn1c(=O)cc(OCC(=O)Nc2ccc(C)cn2)c2ccccc21 | inconclusive [inhibitor, partial curve] |  |
| Cc1ccc(NC(=O)Nc2ccc3c(c2)nnn3C)cc1C | inconclusive [inhibitor, full curve, poor fit] |  |
| Cc1ccc(OCCOc2cccc(C=C3C(=O)NC(=O)NC3=O)c2)cc1 | inconclusive [inhibitor, partial curve] |  |
| COC(=O)c1ccccc1NC(=O)CCc1ccccc1 | inconclusive [inhibitor, single point] |  |
| C/C(=N\NC(=O)c1ccccc1C)c1cccc([N+](=O)[O-])c1 | inconclusive [inhibitor, single point] |  |
| COc1ccccc1N1C(=O)C(Cl)=C(N2CCCC2)C1=O | inconclusive [inhibitor, full curve, poor fit] |  |
| Cc1noc(C(=O)Nc2c(C)nn(Cc3ccccc3)c2C)c1Cl | inconclusive [inhibitor, partial curve, poor fit] |  |
| COc1ccc(-c2cn(-c3ccc(C)cc3)c(S(=O)(=O)CC(=O)Nc3ccccc3)n2)cc1 |  | inactive: -5.4% |
| CCN(CC(=O)Nc1ccccc1C(F)(F)F)C(=O)c1oc2c(Cl)cccc2c1C |  | inactive: -16.5% |
| CC(C)c1nnc(NC(=O)CCC(=O)N2CCN(C3c4ccccc4-c4ccccc43)CC2)s1 | inconclusive [inhibitor, full curve, poor fit] |  |
| O=C(NNC1CC(=O)N(c2ccc3c(c2)OCCO3)C1=O)c1ccc(Cl)cc1 (centres undefined) | inconclusive [inhibitor, single point] |  |
| CC(NCc1ccccc1Cl)C(O)c1ccccc1 (centres undefined) |  | inactive: -18.2% |
| Oc1ccccc1/C=N/NC(=S)NCCc1ccccc1 |  | inactive: -9.58% |
| COc1ccc(C2(C)NC(=O)N(CC(=O)Nc3ccc(C)cc3Br)C2=O)cc1OC (centres undefined) | inconclusive [inhibitor, full curve] |  |
| COc1ccc(-c2c3c(=O)n(C)c(=O)n(C)c3cn2-c2ccccc2)cc1 | inconclusive [inhibitor, partial curve] |  |
| O=C(Cn1cnc2onc(-c3ccc(F)cc3)c2c1=O)N1CCN(c2ccccc2F)CC1 |  | inactive: -0.775% |
| CCCC1CCC(C(=O)Nn2cnc3ccccc3c2=O)CC1 (centres undefined) | inconclusive [inhibitor, full curve, poor fit] |  |
| C=C(C)C1CCC(C)=C1CC(C)(C)/C=N\n1cnnc1 (centres undefined) | inconclusive [inhibitor, full curve] |  |
